Reference: PubChem BioAssay (NCATS)
Inconclusive results, whose numbers are uncertain, are shown with a selection of clear calls. Potencies beside an inconclusive call are fits to weak or partial responses and may not hold up. Calls of active or inactive are those of the source. Calls come from the whole dose curve; as a rule, active = well fitted cell-killing curve with a large enough effect; inconclusive = small, poorly fitted or top-dose-only effect, or effect the other way; inactive = no such curve, though single readings can be large or run the other way.

Columns and labels:
[1] = Viability qHTS for spleen associated tyrosine kinase inhibitor (SYKi) naive MV4-11 cells (AID 1963823); details: MV4-11 AML viability, CellTiter-Glo luminescence, 72 h; viability (% of control): at 45 µM (top of the series); note: nearly all actives have a fitted effect of over 40% in size
Procedure, shortened: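 Seeding of 500 SYKi-naive MV4-11 cells per well onto pre-dispensed compounds preceded a 72 hr incubation at 37 C. Luminescent CellTiter-Glo signal, read after 10 min at room temperature, reflected viable cells.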

[2] = Viability qHTS for spleen associated tyrosine kinase inhibitor (SYKi) drug resistant MV4-11 cells (AID 1963824); note: nearly all actives have a fitted effect of over 35% in size
Procedure, shortened: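 CellTiter-Glo luminescence, read 10 min after reagent addition, reports viability after a 72 hr compound exposure. Cells are an MV4-11 line made resistant to SYK inhibition, seeded at 500 per well onto compound-containing plates.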
Potency is the fitted concentration of half-maximal effect; tags give direction and shape of the fitted curve.

CCOC(=O)c1c2c3c(cccc3[nH]c1=O)C(=O)c1ccccc1-2
Potency [1]: inconclusive: 2.59 µM [cytotoxic, full curve] | Potency [2]: inconclusive: 4.61 µM [cytotoxic, partial curve, poor fit]

CCOc1ncc(S(=O)(=O)N2CCN(CC)CC2)cc1-c1nc2c(CC)n(CCOC)nc2c(=O)[nH]1
Potency [1]: inactive | Potency [2]: inactive

C=C1/C(=C/C=C2\CCC[C@]3(C)[C@@H]([C@@H](C)OCCC(O)(CC)CC)CC[C@@H]23)C[C@@H](O)C[C@@H]1O
Potency [1]: inactive | Potency [2]: inconclusive: 4.61 µM [cytotoxic, partial curve]

C=C(C(=O)O)[C@@H]1CC=C2CCC[C@H](C)[C@@]2(C)C1
Potency [1]: inconclusive: 23.1 µM [cytotoxic, single point] | Potency [2]: inactive

CC(O)/C=C/C1(O)C2(C)COC1(C)CC(O)C2 (configuration not stated)
Potency [1]: inconclusive: 6.51 µM [cytotoxic, single point] | Potency [2]: inactive

O=C1CSc2ccccc2N1Cc1cccc(C(F)(F)F)c1
Potency [1]: inconclusive: 25.9 µM [cytotoxic, single point] | Potency [2]: inconclusive: 18.4 µM [cytotoxic, partial curve, poor fit]

C=C1C(O)CCC2(C)CC3(OC)OC(=O)C(C)=C3CC12 (configuration not stated)
Potency [1]: inconclusive: 20.6 µM [cytotoxic, single point] | Potency [2]: inconclusive: 16.4 µM [cytotoxic, partial curve]

C[C@@H]1O[C@@H](O[C@H]2[C@H](O[C@H]3CC[C@@]4(C)C(CC[C@]5(C)C4CC=C4C6CC(C)(C)CC[C@]6(C(=O)O[C@@H]6O[C@H](CO[C@@H]7O[C@H](CO)[C@@H](O[C@@H]8O[C@@H](C)[C@H](O)[C@@H](O)[C@H]8O)[C@H](O)[C@H]7O)[C@@H](O)[C@H](O)[C@H]6O)CC[C@]45C)[C@]3(C)CO)OC[C@H](O)[C@@H]2O)[C@H](O)[C@H](O)[C@H]1O (some centres not stated)
viability (% of control) [1]: inactive: 69.6% [at 9.25 µM] | viability, % of control [2]: inactive: 88.1% [at 9.25 µM]

CCCCC1C(=O)N(c2ccccc2)N(c2ccccc2)C1=O
Potency [1]: inconclusive: 29.9 µM [cytotoxic, single point] | Potency [2]: inconclusive: 0.0944 µM [cytotoxic, full curve, poor fit]

[N-]=[N+]=N[C@]1(CO)O[C@@H](n2ccc(=O)[nH]c2=O)[C@@H](O)[C@@H]1O
Potency [1]: inactive | Potency [2]: inactive

C=CC1(C)CC(O)C2(CCC3C(C)(C(=O)O)CCCC3(C)C2=O)C1 (configuration not stated)
Potency [1]: inactive | Potency [2]: inconclusive: 20.2 µM [cytotoxic, single point]

C=C(C)Cn1c(SCC(=O)c2cccs2)nc2sc3c(c2c1=O)CCCC3
Potency [1]: inconclusive: 2.06 µM [cytotoxic, full curve] | Potency [2]: inconclusive: 2.59 µM [cytotoxic, full curve]

C[C@@H]1O[C@@H](O[C@@H]2[C@@H](O[C@@H]3O[C@@H](C)[C@H](O[C@@H]4OC[C@H](O)[C@H](O[C@@H]5OC[C@@H](O)[C@H](O)[C@H]5O)[C@H]4O)[C@@H](O[C@@H]4OC[C@](O)(CO)[C@H]4O)[C@H]3O)[C@H](OC(=O)[C@]34CCC(C)(C)C[C@H]3C3=CCC5[C@@]6(C)C[C@H](O)[C@H](O[C@@H]7O[C@H](CO[C@@H]8OC[C@H](O)[C@H](O)[C@H]8O)[C@@H](O)[C@H](O)[C@H]7O)C(C)(C)C6CC[C@@]5(C)[C@]3(C)C[C@H]4O)OC[C@H]2O)[C@H](O)[C@H](O)[C@H]1O (some centres not stated)
Potency [1]: inconclusive: 3.09 µM [cytotoxic, single point] | Potency [2]: inconclusive: 4.9 µM [cytotoxic, single point]

C=C[C@H]1[C@H](O[C@@H]2O[C@H](CO)[C@@H](O)[C@H](O)[C@H]2O)OC=C(C(=O)OC)[C@H]1C[C@@H]1N[C@H](C(=O)O)Cc2c1[nH]c1ccccc21
Potency [1]: inactive | Potency [2]: inactive

C=C1C[C@@]23CC[C@@H]4[C@](C)(C(=O)O)CCC[C@@]4(C)C2=CC[C@H]1C3
Potency [1]: inactive | Potency [2]: inactive

COc1ccc(-c2ccccc2)cc1NS(=O)(=O)c1cc(Cl)cc(Cl)c1O
Potency [1]: inactive | Potency [2]: inconclusive: 3.17 µM [cytotoxic, single point]

Cc1cc(C)c(NC(=O)CN(CC(=O)O)CC(=O)O)c(C)c1Br
Potency [1]: inactive | Potency [2]: inactive

Cc1ccc(-c2ccc(C)cn2)nc1
Potency [1]: inconclusive: 37.2 µM [cytotoxic, single point] | Potency [2]: inconclusive: 37.2 µM [cytotoxic, single point]

CC(C)(c1ccc(OCC(O)CO)cc1)c1ccc(OCC(O)CCl)cc1 (configuration not stated)
Potency [1]: inconclusive: 16.6 µM [cytotoxic, partial curve] | Potency [2]: inconclusive: 18.6 µM [cytotoxic, partial curve]

COc1cc(Cc2cnc(N)nc2N)c(C(C)C)cc1OC
Potency [1]: inconclusive: 13 µM [cytotoxic, partial curve] | Potency [2]: inconclusive: 29.1 µM [cytotoxic, single point]

C=CC(=O)Nc1ccc2ncnc(Nc3cccc(Br)c3)c2c1
Potency [1]: active: 2.59 µM | Potency [2]: active: 2.31 µM

O=C(NCCN1CCN(c2cccc3c2OCCO3)CC1)c1ccc(F)cc1
Potency [1]: inconclusive: 20.6 µM [cytotoxic, partial curve] | Potency [2]: inconclusive: 16.4 µM [cytotoxic, single point]

CC(C)N=C(N)/N=C(\N)Nc1ccc(Cl)cc1
Potency [1]: inconclusive: 10.6 µM [cytotoxic, partial curve] | Potency [2]: inconclusive: 15 µM [cytotoxic, partial curve, poor fit]

COc1ccc([C@@H]2OC[C@H]3[C@@H]2CO[C@@H]3c2ccc(OC3OC(CO)C(O)C(O)C3O)c(OC)c2)cc1OC (some centres not stated)
Potency [1]: inconclusive: 7.96 µM [cytotoxic, partial curve, poor fit] | Potency [2]: inconclusive: 17.8 µM [cytotoxic, single point]

CN=C(NC#N)Nc1ccc(C2=NNC(=O)CC2C)cc1 (configuration not stated)
Potency [1]: inactive | Potency [2]: inactive

C[C@@H]1O[C@@H](OC[C@H]2O[C@@H](OCC3CCC4CC3C4(C)C)[C@H](O)[C@@H](O)[C@@H]2O)[C@H](O)[C@H](O)[C@H]1O (some centres not stated)
Potency [1]: inactive | Potency [2]: inconclusive: 0.0399 µM [cytotoxic, full curve, poor fit]

C[C@@H]1O[C@@H](O[C@H]2[C@H](O)[C@@H](C(=O)O)O[C@@H](O[C@H]3CC[C@@]4(C)C(CC[C@]5(C)C4CC=C4C6CC(C)(C)CC[C@]6(C(=O)O)CC[C@]45C)C3(C)C)[C@@H]2O[C@@H]2OC[C@@H](O)[C@H](O)[C@H]2O)[C@H](O)[C@H](O)[C@H]1O (some centres not stated)
Potency [1]: inconclusive: 0.618 µM [rising, partial curve, poor fit] | viability, % of control [2]: inactive: 92.4% [at 9.25 µM]

C=CC1C(OC2OC(CO)C(O)C(O)C2O)OC=C(C(=O)OC)C1CC1CC(=O)CC(CCc2ccc(O)cc2)O1 (configuration not stated)
Potency [1]: inactive | Potency [2]: inconclusive: 1.72 µM [cytotoxic, single point]

CC1CCC2C(C)(C)C(O)CCC2(C)C12Cc1c(O)cc3c(c1O2)C(N)=NC3 (configuration not stated)
Potency [1]: inconclusive: 11.4 µM [cytotoxic, partial curve] | Potency [2]: inconclusive: 8.05 µM [cytotoxic, partial curve]

O=S(=O)(O)c1ccc(Nc2ncnc3c2ncn3[C@@H]2O[C@H](CO)[C@@H](O)[C@H]2O)cc1
Potency [1]: inactive | Potency [2]: inconclusive: 3.26 µM [cytotoxic, partial curve, poor fit]

CC(=O)O[C@H]1[C@@H](O)[C@H](O[C@H]2[C@@H]3C=CO[C@@H](O[C@H]4O[C@@H](CO)[C@H](O)[C@@H](O)[C@@H]4O)[C@@H]3[C@@]3(CO)O[C@@H]23)O[C@@H](C)[C@@H]1OC(=O)/C=C/c1ccccc1
Potency [1]: inactive | Potency [2]: inactive
